In the test the test system is BDF1 mice, B16 melanoma s.c., survival/tumor T/C. Put plainly: NCI In Vivo Anticancer Drug Screen. Data for tumor model B16 Melanoma (subcutaneous) in B6D2F1 (BDF1) mice. Here is the method: The antitumor activity of compounds was measured in mice bearing transplantable tumors. Survival or tumor size were measured and the results are expressed as the measurement made in the treated group (T) divided by the measurement made in the vehicle treated control group (C). The tumor model used in this assay is B16 Melanoma (subcutaneous) in B6D2F1 (BDF1) mice

Setting [1] is: endpoint: median tumor weight (est.), dose: 25.0 mg/kg/injection, schedule: Q01DX009 (ip), vehicle: Klucel (hydroxypropylcellulose) (HPC), higher = larger tumour.
[2] abbreviates: endpoint: median tumor weight (est.), dose: 4.0 mg/kg/injection, schedule: Q01DX009 (ip), vehicle: Klucel (hydroxypropylcellulose) (HPC), higher = larger tumour.
[3] abbreviates: endpoint: median tumor weight (est.), dose: 1.0 mg/kg/injection, schedule: Q01DX009 (ip), vehicle: saline, higher = larger tumour.
The mark [4] stands for this setting: endpoint: median tumor weight (est.), dose: 2.0 mg/kg/injection, schedule: Q01DX009 (ip), vehicle: saline, higher = larger tumour.
Setting [5] is: endpoint: median tumor weight (est.), dose: 25.0 mg/kg/injection, schedule: Q01DX009 (ip), vehicle: saline, higher = larger tumour.
Setting [6] is: endpoint: median tumor weight (est.), dose: 0.5 mg/kg/injection, schedule: Q01DX009 (ip), vehicle: saline, higher = larger tumour.
[7] abbreviates: endpoint: median tumor weight (est.), dose: 0.25 mg/kg/injection, schedule: Q01DX009 (ip), vehicle: saline, higher = larger tumour.

Records with an inconclusive call do not appear. A number of entries come with more than one value. Only these are listed. There may be further records. Values that stand side by side differ, and nothing given here explains why; dose, time, organism, isomer or construct need not be as stated for each record. *1 amine or outer side, *2 acyl side, *3 side chain or, on linkers, in order; H or OH if unused. Where a SMILES comes first, the peptide text is derived from it. Bridges are numbered along the chain shown (N, C = ends). Roman numbers before positions name the chains, in order. [ ]: non-standard residue; d: D form. Actinocin(9to1) = Cc1c2oc3c(C)ccc(C(=O)[*:1])c3nc-2c(C(=O)[*:2])c(N)c1=O; aThr = C[C@H](O)[C@H](N)C(=O)O; NMeV = CN[C@H](C(=O)O)C(C)C; Sar = CNCC(=O)O

Consider `O=C1C(=O)c2ccccc2C(O)=C1CC=C(Cl)Cl`, for which, under setting [1], the T/C is reported as 48 % of control, 67 % of control, 83 % of control.
On to `Nc1n[nH]c(N)n1`, for which the T/C runs as follows: (endpoint: median tumor weight (est.), dose: 100.0 mg/kg/injection, schedule: Q01DX009 (ip), vehicle: saline, higher = larger tumour) 93 % of control and 464 % of control; (endpoint: median tumor weight (est.), dose: 200.0 mg/kg/injection, schedule: Q01DX009 (ip), vehicle: saline, higher = larger tumour) 103 % of control and 758 % of control; (endpoint: median tumor weight (est.), dose: 400.0 mg/kg/injection, schedule: Q01DX009 (ip), vehicle: saline, higher = larger tumour) 100 % of control and 592 % of control; (endpoint: median tumor weight (est.), dose: 800.0 mg/kg/injection, schedule: Q01DX009 (ip), vehicle: saline, higher = larger tumour) 74 % of control and 737 % of control.
For `CC1CCC(NC(=O)N(CCCl)N=O)CC1` (configuration not stated), the T/C was 30 % of control and 106 % of control (endpoint: median tumor weight (est.), dose: 2.0 mg/kg/injection, schedule: Q01DX009 (ip), vehicle: Klucel (hydroxypropylcellulose) (HPC), higher = larger tumour); 12 % of control and 57 % of control under setting [2].
As for `Cc1c2oc3c(C)ccc(C(=O)N[C@@H]4C(=O)N[C@H](C(C)C)C(=O)N5CCC[C@H]5C(=O)N(C)CC(=O)N(C)[C@@H](C(C)C)C(=O)O[C@H]4C)c3nc-2c(C(=O)N[C@@H]2C(=O)N[C@H](C(C)C)C(=O)N3CCC[C@H]3C(=O)N(C)CC(=O)N(C)[C@@H](C(C)C)C(=O)O[C@H]2C)c(N)c1=O` (I: [aThr][dV]P[Sar][NMeV] / II: [aThr][dV]P[Sar][NMeV]; ester I:1-I:C, II:1-II:C; linker I:N-II:N via Actinocin(9to1)), the T/C is on record as 110 % of control, 113 % of control, 587 % of control (endpoint: median tumor weight (est.), dose: 13.0 micrograms/kg/injection, schedule: Q01DX009 (ip), vehicle: saline, higher = larger tumour); 80 % of control, 121 % of control, 532 % of control (endpoint: median tumor weight (est.), dose: 25.0 micrograms/kg/injection, schedule: Q01DX009 (ip), vehicle: saline, higher = larger tumour); 38 % of control, 78 % of control, 330 % of control (endpoint: median tumor weight (est.), dose: 50.0 micrograms/kg/injection, schedule: Q01DX009 (ip), vehicle: saline, higher = larger tumour).
Regarding `COc1cccc2c1C(=O)c1c(O)c3c(c(O)c1C2=O)C[C@@](O)(C(C)=O)C[C@@H]3OC1CC(N)C(O)C(C)O1` (some centres not stated), the T/C was 86 % of control, 89 % of control, 113 % of control under setting [3]; 58 % of control and 106 % of control under setting [4].
As to `O=c1[nH]c(=O)n(C2CC(O)C(CO)O2)cc1F` (configuration not stated), under setting [5], the T/C is 66 % of control and 451 % of control.
As to `S=c1nc[nH]c2nc[nH]c12`, the T/C reads like this: under setting [1], 89 % of control and 400 % of control; (endpoint: median tumor weight (est.), dose: 50.0 mg/kg/injection, schedule: Q01DX009 (ip), vehicle: Klucel (hydroxypropylcellulose) (HPC), higher = larger tumour) 82 % of control and 158 % of control.
As to `CN(Cc1cnc2nc(N)nc(N)c2n1)c1ccc(C(=O)N[C@@H](CCC(=O)O)C(=O)O)cc1`, the T/C was 40 % of control and 94 % of control under setting [6]; 62 % of control and 192 % of control under setting [3]; 51 % of control and 170 % of control under setting [4]; 81 % of control and 192 % of control (endpoint: median tumor weight (est.), dose: 4.0 mg/kg/injection, schedule: Q01DX009 (ip), vehicle: saline, higher = larger tumour).
Regarding `O=NN(CCCl)C(=O)NC1CCCCC1`, the T/C was 47 % of control, 49 % of control, 585 % of control under setting [2]; 72 % of control and 589 % of control (endpoint: median tumor weight (est.), dose: 12.0 mg/kg/injection, schedule: Q01DX001 (ip), vehicle: Klucel (hydroxypropylcellulose) (HPC), higher = larger tumour).
`O=c1[nH]cc(F)c(=O)[nH]1`: for the setting “endpoint: median tumor weight (est.), dose: 20.0 mg/kg/injection, schedule: Q01DX009 (ip), vehicle: Klucel (hydroxypropylcellulose) (HPC), higher = larger tumour”, the T/C was 25 % of control and 163 % of control.
With `CC[C@]1(O)C[C@H]2CN(CCc3c([nH]c4ccccc34)[C@@](C(=O)OC)(c3cc4c(cc3OC)N(C=O)[C@H]3[C@@](O)(C(=O)OC)[C@H](OC(C)=O)[C@]5(CC)C=CCN6CC[C@]43[C@@H]65)C2)C1`, the T/C reads like this: under setting [7], 36 % of control, 73 % of control, 513 % of control; under setting [6], 26 % of control, 38 % of control, 99 % of control.
With `C1CN1c1nc(N2CC2)nc(N2CC2)n1`, the T/C runs as follows: (endpoint: median tumor weight (est.), dose: 0.13 mg/kg/injection, schedule: Q01DX009 (ip), vehicle: saline, higher = larger tumour) 77 % of control and 484 % of control; under setting [7], 50 % of control and 504 % of control; under setting [6], 75 % of control and 156 % of control; (endpoint: median tumor weight (est.), dose: 0.5 mg/kg/injection, schedule: Q08DX002 (ip), vehicle: saline, higher = larger tumour) 99 % of control and 492 % of control; (endpoint: median tumor weight (est.), dose: 1.0 mg/kg/injection, schedule: Q08DX002 (ip), vehicle: saline, higher = larger tumour) 63 % of control and 363 % of control; (endpoint: median tumor weight (est.), dose: 2.0 mg/kg/injection, schedule: Q08DX002 (ip), vehicle: saline, higher = larger tumour) 64 % of control and 591 % of control.
As to `CN(C)/N=N/c1nc[nH]c1C(N)=O`, the T/C is, setting by setting: (endpoint: median tumor weight (est.), dose: 37.5 mg/kg/injection, schedule: Q01DX009 (ip), vehicle: Klucel (hydroxypropylcellulose) (HPC), higher = larger tumour) 53 % of control and 370 % of control; (endpoint: median tumor weight (est.), dose: 75.0 mg/kg/injection, schedule: Q01DX009 (ip), vehicle: Klucel (hydroxypropylcellulose) (HPC), higher = larger tumour) 74 % of control and 278 % of control.
For the compound `Cc1c(N)nc([C@H](CC(N)=O)NC[C@H](N)C(N)=O)nc1C(=O)N[C@H](C(=O)N[C@H](C)[C@@H](O)[C@H](C)C(=O)N[C@H](C(=O)NCCc1nc(-c2nc(C(=O)NCCC[S+](C)C)cs2)cs1)[C@@H](C)O)C(OC1OC(CO)C(O)C(O)C1OC1OC(CO)C(O)C(OC(N)=O)C1O)c1cnc[nH]1` (some centres not stated), the T/C reads like this: (endpoint: median tumor weight (est.), dose: 2.0 mg/kg/injection, schedule: Q01DX009 (ip), vehicle: water, higher = larger tumour) 20 % of control and 97 % of control; (endpoint: median tumor weight (est.), dose: 3.0 mg/kg/injection, schedule: Q01DX009 (ip), vehicle: saline, higher = larger tumour) 11 % of control, 26 % of control, 40 % of control; (endpoint: median tumor weight (est.), dose: 4.0 mg/kg/injection, schedule: Q01DX009 (ip), vehicle: water, higher = larger tumour) 14 % of control and 60 % of control; (endpoint: median tumor weight (est.), dose: 6.0 mg/kg/injection, schedule: Q01DX009 (ip), vehicle: saline, higher = larger tumour) 28 % of control and 57 % of control.
Regarding `O=P1(N(CCCl)CCCl)NCCCO1` (configuration not stated), the T/C is, setting by setting: under setting [5], 50 % of control, 72 % of control, 93 % of control; (endpoint: median tumor weight (est.), dose: 150.0 mg/kg/injection, schedule: Q01DX001 (ip), vehicle: saline, higher = larger tumour) 17 % of control, 36 % of control, 92 % of control; (endpoint: median tumor weight (est.), dose: 300.0 mg/kg/injection, schedule: Q01DX001 (ip), vehicle: saline, higher = larger tumour) 4 % of control, 17 % of control, 60 % of control.
In the case of `CN1c2c(nc(N)[nH]c2=O)NCC1CCNc1ccc(C(=O)NC(CCC(=O)O)C(=O)O)cc1` (configuration not stated), the T/C (endpoint: median survival time, dose: 260.0 mg/kg/injection, schedule: Q01DX009 (ip), vehicle: saline, higher = longer survival) was 101 % of control and 167 % of control; the T/C (endpoint: median survival time, dose: 400.0 mg/kg/injection, schedule: Q01DX009 (ip), vehicle: saline, higher = longer survival) is 98 % of control and 154 % of control; the T/C (endpoint: median survival time, dose: 600.0 mg/kg/injection, schedule: Q01DX009 (ip), vehicle: saline, higher = longer survival) was 110 % of control and 177 % of control.

Values taken from PubChem BioAssay AID194 (DTP/NCI, 2004).
